# Source: the supplement of paper PMC8728848
# The list shows a part of the results.
# B1: XL-35 (Xenopus laevis) (protein)
# chain: MLVHILLLLVTGGLSQSCDPVVIVASKNMVKQLDCDKFRNCKEIKDSNEEAQDGIYTLTSPDGISYQTFCDMTTNGGGWTLVASVHENNMAGKCTIGDRWSSQQGNRADYPEGDGNWANYNTFGSAGGATSDDYKNPGYYDIEAYNLGVWHVPNKTPLSVWRNSSLQRYRTTDGILFKHGGNLFSLYRIYPVKYGIGSCSKDSGPTVPVVYDLGSANLTASFYSPGFRSQFTPGYIQFRPINTEKAALALCPGMKMESCNVEHVCIGGGGYFPEADPRQCGDFAAYDFNGYGTKKFNSAGIEITEAAVLLFYL
# Experiments:
# Assay in all cases: glycan array binding signal (z-score within array); higher = stronger binding
# Settings in all cases: glycan notation: IUPAC condensed, linker removed
# [1] = biological target: Gal(b1-3)GlcNAc(b1-3)Gal(b1-4)Glc
# Outline: (§1)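 Glycan array binding is given as a within-array Z-score, which can be read as non-binding when negative. The arrays, 3228 of them, came from the Consortium for Functional Glycomics database and were retained only where the protein sequence was available. Z-scores were averaged across arrays of the same protein sequence at different concentrations or buffers and across linkers.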
# [2] = biological target: Gal(b1-3)GlcNAc(b1-3)Gal(b1-4)GlcNAc
# Outline: as §1
# [3] = biological target: Gal(b1-3)GlcNAc(b1-3)Gal(b1-4)GlcNAc(b1-2)Man(a1-3)[Gal(b1-3)GlcNAc(b1-3)Gal(b1-4)GlcNAc(b1-2)Man(a1-6)]Man(b1-4)GlcNAc(b1-4)GlcNAc
# Outline: as §1
# [4] = biological target: Gal(b1-3)GlcNAc(b1-3)Gal(b1-4)GlcNAc(b1-2)[Gal(b1-3)GlcNAc(b1-3)Gal(b1-4)GlcNAc(b1-6)]Man(a1-6)[Gal(b1-3)GlcNAc(b1-3)Gal(b1-4)GlcNAc(b1-2)Man(a1-3)]Man(b1-4)GlcNAc(b1-4)[Fuc(a1-6)]GlcNAc
# Outline: as §1
# [5] = biological target: Gal(b1-3)GlcNAc(b1-3)Gal(b1-4)GlcNAc(b1-3)Gal(b1-4)GlcNAc(b1-2)[Gal(b1-3)GlcNAc(b1-3)Gal(b1-4)GlcNAc(b1-3)Gal(b1-4)GlcNAc(b1-6)]Man(a1-6)[Gal(b1-3)GlcNAc(b1-3)Gal(b1-4)GlcNAc(b1-3)Gal(b1-4)GlcNAc(b1-2)Man(a1-3)]Man(b1-4)GlcNAc(b1-4)[Fuc(a1-6)]GlcNAc
# Outline: as §1
# [6] = biological target: Gal(b1-3)GlcNAc(b1-3)Gal(b1-4)GlcNAc(b1-6)[Gal(b1-3)GlcNAc(b1-3)]Gal(b1-4)Glc
# Outline: as §1
# [7] = biological target: Gal(b1-3)GlcNAc(b1-3)Gal(b1-4)[Fuc(a1-3)]GlcNAc
# Outline: as §1
# [8] = biological target: Gal(b1-3)GlcNAc(b1-3)Gal(b1-4)[Fuc(a1-3)]GlcNAc(b1-6)[Gal(b1-3)GlcNAc(b1-3)]Gal(b1-4)Glc
# Outline: as §1
# [9] = biological target: Gal(b1-3)GlcNAc(b1-3)GalNAc
# Outline: as §1
# [10] = biological target: Gal(b1-3)GlcNAc(b1-6)Gal(b1-4)GlcNAc
# Outline: as §1
# [11] = biological target: Gal(b1-3)GlcNAc(b1-6)GalNAc
# Outline: as §1
# [12] = biological target: Gal(b1-3)GlcNAc(b1-6)[Gal(b1-3)]GalNAc
# Outline: as §1
# [13] = biological target: Gal(b1-3)GlcNAc6S
# Outline: as §1
# [14] = biological target: Gal(b1-3)[Fuc(a1-4)]GlcNAc
# Outline: as §1
# [15] = biological target: Gal(b1-3)[Fuc(a1-4)]GlcNAc(b1-2)Man
# Outline: as §1
# [16] = biological target: Gal(b1-3)[Fuc(a1-4)]GlcNAc(b1-2)Man(a1-3)[Gal(b1-3)[Fuc(a1-4)]GlcNAc(b1-2)Man(a1-6)]Man(b1-4)GlcNAc(b1-4)[Fuc(a1-6)]GlcNAc
# Outline: as §1
# [17] = biological target: Gal(b1-3)[Fuc(a1-4)]GlcNAc(b1-3)Gal(b1-3)[Fuc(a1-4)]GlcNAc
# Outline: as §1
# [18] = biological target: Gal(b1-3)[Fuc(a1-4)]GlcNAc(b1-3)Gal(b1-4)GlcNAc
# Outline: as §1
# [19] = biological target: Gal(b1-3)[Fuc(a1-4)]GlcNAc(b1-3)Gal(b1-4)[Fuc(a1-3)]GlcNAc
# Outline: as §1
# [20] = biological target: Gal(b1-3)[Fuc(a1-4)]GlcNAc(b1-6)GalNAc
# Outline: as §1
# [21] = biological target: Gal(b1-3)[GlcNAc(b1-6)]GalNAc
# Outline: as §1
# [22] = biological target: Gal(b1-3)[GlcNAc(b1-6)]GlcNAc
# Outline: as §1
# [23] = biological target: Gal(b1-3)[Neu5Ac(a2-6)]GalNAc
# Outline: as §1
# [24] = biological target: Gal(b1-3)[Neu5Ac(a2-6)]GlcNAc
# Outline: as §1
# [25] = biological target: Gal(b1-3)[Neu5Ac(a2-6)]GlcNAc(a1-4)Gal(b1-4)Glc
# Outline: as §1
# [26] = biological target: Gal(b1-3)[Neu5Ac(a2-6)]GlcNAc(b1-4)Gal(b1-4)Glc
# Outline: as §1
# [27] = biological target: Gal(b1-3)[Neu5Ac(b2-6)]GalNAc
# Outline: as §1
# [28] = biological target: Gal(b1-3)[Neu5Ac(b2-6)]GlcNAc
# Outline: as §1
# [29] = biological target: Gal(b1-4)Gal
# Outline: as §1
# [30] = biological target: Gal(b1-4)GalNAc(a1-3)[Fuc(a1-2)]Gal(b1-4)GlcNAc
# Outline: as §1
# [31] = biological target: Gal(b1-4)GalNAc(b1-3)[Fuc(a1-2)]Gal(b1-4)GlcNAc
# Outline: as §1
# [32] = biological target: Gal(b1-4)Glc
# Outline: as §1
# [33] = biological target: Gal(b1-4)Glc6S
# Outline: as §1
# [34] = biological target: Gal(b1-4)GlcNAc
# Outline: as §1
# [35] = biological target: Gal(b1-4)GlcNAc(a1-6)Gal(b1-4)GlcNAc
# Outline: as §1
# [36] = biological target: Gal(b1-4)GlcNAc(b1-2)Man
# Outline: as §1
# [37] = biological target: Gal(b1-4)GlcNAc(b1-2)Man(a1-3)Man(b1-4)GlcNAc(b1-4)GlcNAc
# Outline: as §1
# [38] = biological target: Gal(b1-4)GlcNAc(b1-2)Man(a1-3)[Gal(b1-4)GlcNAc(b1-2)Man(a1-6)]Man(b1-4)GlcNAc(b1-4)GlcNAc
# Outline: as §1
binder,measurement,setting,value
B1,glycan array binding signal (z-score),[1],0.019
same,glycan array binding signal (z-score),[2],-0.474
same,glycan array binding signal (z-score),[3],0.225
same,glycan array binding signal (z-score),[4],0.717
same,glycan array binding signal (z-score),[5],0.54
same,glycan array binding signal (z-score),[6],-0.214
same,glycan array binding signal (z-score),[7],-0.32
same,glycan array binding signal (z-score),[8],-0.425
same,glycan array binding signal (z-score),[9],-0.034
same,glycan array binding signal (z-score),[10],-0.191
same,glycan array binding signal (z-score),[11],-0.122
same,glycan array binding signal (z-score),[12],0.028
same,glycan array binding signal (z-score),[13],0.119
same,glycan array binding signal (z-score),[14],-0.134
same,glycan array binding signal (z-score),[15],0.05
same,glycan array binding signal (z-score),[16],-0.308
same,glycan array binding signal (z-score),[17],-0.088
same,glycan array binding signal (z-score),[18],-0.059
same,glycan array binding signal (z-score),[19],-0.211
same,glycan array binding signal (z-score),[20],0.097
same,glycan array binding signal (z-score),[21],0.081
same,glycan array binding signal (z-score),[22],-0.039
same,glycan array binding signal (z-score),[23],-0.356
same,glycan array binding signal (z-score),[24],-0.064
same,glycan array binding signal (z-score),[25],-0.076
same,glycan array binding signal (z-score),[26],0.794
same,glycan array binding signal (z-score),[27],-0.422
same,glycan array binding signal (z-score),[28],-0.08
same,glycan array binding signal (z-score),[29],-0.258
same,glycan array binding signal (z-score),[30],-0.133
same,glycan array binding signal (z-score),[31],-0.157
same,glycan array binding signal (z-score),[32],-0.036
same,glycan array binding signal (z-score),[33],-0.075
same,glycan array binding signal (z-score),[34],-0.066
same,glycan array binding signal (z-score),[35],-0.375
same,glycan array binding signal (z-score),[36],-0.02
same,glycan array binding signal (z-score),[37],0.168
same,glycan array binding signal (z-score),[38],-0.128
